The text below walks through data of the supplement of paper PMC9446081.

Among all 39,000 compounds or so, about 220 (0.56%) showed activity. The list shows a part of the results.
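Note: static incubation at 37 °C against the wild-type strain, values averaged over two biological replicates.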

The test system of the test is Escherichia coli K-12 BW25113. The experiment in a line: relative growth (OD600 normalised to plate interquartile mean) (fraction); higher = less growth inhibition, active = 0.2 or less. The settings on record: 50 µM; LB; incubation time: overnight (16-24 h).
For `COC(=O)[C@H]1CNC(=O)C1`, the relative growth is inactive: 0.978.

Consider `Cl.Clc1ccc(C(OCCN2CCCCC2)c2ccccc2)cc1` (stereo unspecified), for which the relative growth was inactive: 0.933.

Turning to `O=c1cccc2n1C[C@@H]1CNC[C@H]2C1`, the relative growth was inactive: 1.

As to `c1ccc(N2CCNCC2)nc1`, the relative growth was inactive: 1.

For the molecule `CC(C)Oc1ncccc1CN`, the relative growth is inactive: 0.977.

Turning to `CCOc1cc(C=O)ccc1O`, the relative growth is inactive: 0.911.

Consider `C[C@@H]1CN([C@@H](C)CO)C(=O)CCCn2nncc2CO[C@@H]1CN(C)C(=O)Oc1cccc2ccccc12`, for which the relative growth was inactive: 0.981.

Regarding `C[C@@]12C(=O)OC(=O)[C@]1(C)[C@H]1CC[C@@H]2O1`, the relative growth was inactive: 0.933.

On to `Cc1cc(O)c2c(=O)c3c(O)cc(O)c4c5c(O)cc(O)c6c(=O)c7c(O)cc(C)c8c1c2c(c34)c(c78)c65`, for which the relative growth was inactive: 1.61.

As to `CC1CC(C)C(=O)C(C(O)CC2CC(=O)NC(=O)C2)C1` (stereo unspecified), the relative growth was inactive: 0.206.

In the case of `CC(CCc1ccccc1)NC(C)C(O)c1ccc(O)cc1.Cl` (stereo unspecified), the relative growth is inactive: 1.02.

Regarding `N#C[C@]1(O)CN2CCC1CC2`, the relative growth is inactive: 1.01.

For `C[C@@H]1C(=O)NC[C@H]2CN(CC3CC3)C[C@@H]21`, the relative growth is inactive: 0.982.

As for `COc1ccc(OC(=O)N(C)C[C@H]2OCc3ccccc3-c3c(n(C)c4ccccc34)C(=O)N([C@H](C)CO)C[C@H]2C)cc1`, the relative growth was inactive: 1.01.

Regarding `CCC1(C)CC(=O)NC(=O)C1`, the relative growth was inactive: 1.04.

Turning to `CC(C)n1cnnc1CCN`, the relative growth was inactive: 0.994.

For the molecule `COc1cc2c(cc1OC)C1C(=O)c3ccc4oc(C(C)C)cc4c3OC1CO2` (stereo unspecified), the relative growth was inactive: 0.795.

Consider `C[C@H](CO)N1C[C@H](C)[C@H](CN(C)C(=O)Oc2cccc3ccccc23)OCc2cn(nn2)CCCC1=O`, for which the relative growth was inactive: 1.05.

`CCCC(C)(COC(N)=O)COC(=O)NC(C)C` (stereo unspecified): the relative growth was inactive: 1.04.

Take `CN1CCOC[C@]2(CCCNC2)C1`: the relative growth was inactive: 0.994.

With `CCC(N)C(O)c1ccc(O)c(O)c1.Cl` (stereo unspecified), the relative growth was inactive: 0.99.

`N[C@@]1(C(=O)O)CC[C@H](C(=O)O)C1.N[C@]1(C(=O)O)CC[C@@H](C(=O)O)C1`: the relative growth is inactive: 0.973.

On to `COc1ccccc1C1(N)CC1`, for which the relative growth was inactive: 1.01.

On to `CN(C)c1ccc(CCN)cc1`, for which the relative growth was inactive: 1.

For `CC(O)CN1CCN(CC(=O)[O-])CCN(CC(=O)[O-])CCN(CC(=O)[O-])CC1.[Gd+3]` (stereo unspecified), the relative growth was inactive: 1.09.

Take `Cl.NNCc1ccccc1`: the relative growth is inactive: 1.01.

With `COC(=O)[C@@]1(Cc2ccccc2N=[N+]=[N-])N=C(c2ccc(OCCCO)cc2)O[C@H]1c1ccccc1CN=[N+]=[N-]`, the relative growth is inactive: 1.03.

In the case of `Oc1ccc(Cl)cc1Cc1cc(Cl)ccc1O`, the relative growth is inactive: 0.398.

As for `CC(C(O)c1ccccc1)N(C)C` (stereo unspecified), the relative growth is inactive: 0.945.

As for `C[C@H](N)[C@H](O)c1ccc(O)c(O)c1`, the relative growth is inactive: 1.02.

`O=C1CC2(CCNCC2)CN1`: the relative growth is inactive: 0.996.

As to `CC(COc1ccc(Oc2ccccc2)cc1)Oc1ccccn1` (stereo unspecified), the relative growth is inactive: 0.972.

Regarding `COC(=O)C[C@@H]1CC[C@H]2NC[C@@H](O)COC[C@@H]2O1`, the relative growth is inactive: 1.01.

With `O=C1CO[C@H]2CNC[C@@H]2N1CC1CCCC1`, the relative growth was inactive: 1.

`CN1CCN(CC2CC2)C(=O)C12CCNCC2`: the relative growth was inactive: 1.

Consider `CC(C)(C)NCC(O)c1ccccc1Cl.Cl` (stereo unspecified), for which the relative growth is inactive: 1.06.

For the molecule `Clc1ccc(C(c2ccc(Cl)cc2)C(Cl)(Cl)Cl)cc1`, the relative growth is inactive: 1.13.

As for `Nc1nc(=O)c2ncn([C@H]3O[C@@H](COP(=O)(O)OP(O)(O)=S)[C@H](O)[C@@H]3O)c2[nH]1`, the relative growth was inactive: 1.02.

On to `CCC1CN2CCC1CC2C(O)c1ccnc2ccc(OC)cc12` (stereo unspecified), for which the relative growth was inactive: 1.1.

On to `CN1[C@@H]2C[C@@H](O)C[C@H]1[C@@H]1O[C@@H]12`, for which the relative growth was inactive: 1.12.

Consider `COC(=O)[C@@]1(Cc2ccccc2N=[N+]=[N-])N=C(c2ccc(OCCCO)cc2)O[C@H]1c1ccccc1N=[N+]=[N-]`, for which the relative growth was inactive: 1.03.

For the molecule `COc1cc(OC)c(OC)cc1C=O`, the relative growth was inactive: 0.911.

As to `C#CC(C)(O)CC` (stereo unspecified), the relative growth is inactive: 1.05.

With `COc1cc2c(cc1O)CC1c3c(cc(O)c(OC)c3-2)CCN1C` (stereo unspecified), the relative growth was inactive: 0.964.

`CC1=C2CC3C(CC=C4CC(O)CCC43C)C2CCC12OC1CC(C)CNC1C2C` (stereo unspecified): the relative growth is inactive: 1.05.

For the molecule `CCC(=O)OC1CCC2C3CCC4=CC(=O)CCC4(C)C3CCC12C` (stereo unspecified), the relative growth was inactive: 0.95.

Consider `NN=C(N)N`, for which the relative growth was inactive: 0.988.

For `C=CCN1C[C@H]2CN(C(C)C)C[C@H]2C1=O`, the relative growth was inactive: 1.05.

`COC(=O)C[C@@H](CN)c1ccc(Cl)cc1`: the relative growth was inactive: 1.01.

On to `CN1C2CCC1CC(O)C2` (stereo unspecified), for which the relative growth was inactive: 1.12.

`N[C@@H](Cc1ccccc1)c1ccc2c(c1)OCCO2`: the relative growth is inactive: 0.994.

Take `CCOc1ccc(N2CCNCC2)nn1`: the relative growth was inactive: 1.

For the molecule `CN1CCc2cc3c(cc2C1O)OCO3.Cl` (stereo unspecified), the relative growth is inactive: 1.01.

As for `Cc1ccc(N2CCO[C@@H]3CNCC[C@H]3C2)nn1`, the relative growth was inactive: 1.01.

Turning to `CCOCC(=O)N1C[C@H]2CNC[C@H]2C1`, the relative growth is inactive: 1.01.

Consider `O[C@H]1CNC[C@@H]1N1CCCCC1`, for which the relative growth was inactive: 1.04.

Turning to `C[C@]12CC[C@]3(C)OC[C@](CO)(CO1)N23`, the relative growth is inactive: 1.01.

On to `Cl.NCC(=O)c1ccccc1`, for which the relative growth is inactive: 0.975.

For the molecule `N#[N+]CC(=O)OC[C@H](N)C(=O)O`, the relative growth was inactive: 1.02.

`O=C1CCO1`: the relative growth is inactive: 0.952.

On to `CCC1(CC)C(=O)NC(=O)NC1=O`, for which the relative growth was inactive: 0.887.

In the case of `CN1CC(CNC(=O)OCc2ccccc2)CC2c3cccc4c3c(cn4C)CC21` (stereo unspecified), the relative growth was inactive: 0.991.

Regarding `CCOCC(=O)N[C@H]1CCSC1=O`, the relative growth is inactive: 0.978.

As for `COCCCNC(=O)[C@@]1(Cc2ccccc2CN=[N+]=[N-])N=C(c2ccc(OCCCO)cc2)O[C@H]1c1ccccc1CN=[N+]=[N-]`, the relative growth is inactive: 1.03.

`NC(=O)C12CC(CN1)C2`: the relative growth was inactive: 0.998.

For the molecule `CN1C[C@@H]2CNC[C@@H]2C1=O`, the relative growth was inactive: 1.03.

As for `COc1ccc2[nH]cc(CCN)c2c1`, the relative growth was inactive: 0.995.

As to `C=CC1CN2CCC1CC2C(OC(=O)OCC)c1ccnc2ccc(OC)cc12` (stereo unspecified), the relative growth was inactive: 0.912.

For `N[C@H]1Cc2ccccc2[C@@H]1O`, the relative growth was inactive: 0.989.

Consider `C[C@H]1O[C@H](n2cnc3c(N)ncnc32)C[C@@H]1O`, for which the relative growth is inactive: 0.961.

As for `CC(C)C12CN3CCN(CC(C3)C1=O)C2`, the relative growth was inactive: 0.994.

Consider `C[C@H](CO)N1C[C@H](C)[C@H](CN(C)C(=O)Oc2cccc3ccccc23)OCc2cnnn2CCCC1=O`, for which the relative growth is inactive: 0.991.

Regarding `N[C@@]1(C(=O)O)CC[C@@H](C(=O)O)C1.N[C@]1(C(=O)O)CC[C@H](C(=O)O)C1`, the relative growth is inactive: 1.05.

Regarding `CCOC(=O)[C@H]1[C@@H](C=C(C)C)C1(C)C`, the relative growth was inactive: 1.05.

Regarding `Cc1cnc(C(=O)N2C[C@H]3CNC[C@H]3C2)cn1`, the relative growth is inactive: 0.981.

On to `CN(C)C(=O)Oc1cc(OC(=O)N(C)C)cc(C(O)CNC(C)(C)C)c1.Cl` (stereo unspecified), for which the relative growth was inactive: 1.1.

Consider `CCS(=O)(=O)N1C[C@@H]2CCN[C@@H]2C1`, for which the relative growth is inactive: 1.01.

Consider `COc1cc2c(c(OC)c1OC)-c1ccc(O)c(=O)cc1[C@H](N)CC2`, for which the relative growth was inactive: 0.928.

`C=CC1CN2CCC1CC2C(O)c1ccnc2ccccc12` (stereo unspecified): the relative growth was inactive: 0.951.

Regarding `[N-]=[N+]=Nc1ccc2[nH]ccc2c1`, the relative growth is inactive: 0.946.

In the case of `C[C@@H]1C(=O)NC[C@@H]2CN(CC3CC3)C[C@@H]21`, the relative growth is inactive: 0.944.

Take `C[C@@H](O)CN1C[C@H]2C[C@@H](C1)c1cccc(=O)n1C2`: the relative growth is inactive: 0.979.

As to `COc1cc(C(=O)O)cc(OC)c1OC`, the relative growth is inactive: 1.08.

Consider `N[C@@H](C(=O)O)c1cc(=O)[nH]o1`, for which the relative growth was inactive: 0.969.

Regarding `NC[C@@H](O)c1ccc(Br)cc1`, the relative growth was inactive: 1.

As to `O=[N+]([O-])c1ccc(O)c([N+](=O)[O-])c1`, the relative growth is inactive: 0.802.

On to `C=C(C)[C@H]1O[C@H]2CC[C@@]3(C)[C@@](O)(CC[C@H]4[C@@H]5OC(C)(C)[C@H]6C[C@@H]7C(=C)Cc8c(Cl)cc9[nH]c(c5c9c8[C@@]76O)[C@@]43C)[C@]23O[C@@H]3[C@H]1O`, for which the relative growth was inactive: 1.06.

In the case of `NCCCNCCSP(=O)(O)O`, the relative growth is inactive: 1.1.

As to `Cc1[nH]c2ccc(O)cc2c1CCN`, the relative growth is inactive: 0.972.

With `FC(F)(F)c1nnc(N2CCNCC2)s1`, the relative growth was inactive: 1.07.

With `CNC(C)(C)Cc1ccccc1.O=S(=O)(O)O`, the relative growth was inactive: 1.03.

Regarding `COc1ccc(OC)c(C(O)C(C)N)c1.Cl` (stereo unspecified), the relative growth was inactive: 0.985.

`CC(C)(O)/C=C/C(=O)[C@](C)(O)[C@H]1[C@H](O)C[C@@]2(C)[C@H]3CC=C4[C@@H](CC(=O)C(=O)C4(C)C)[C@]3(C)C(=O)C[C@]12C`: the relative growth was inactive: 0.979.

In the case of `NC(=O)c1cn([C@@H]2O[C@H](CO)[C@@H](O)[C@H]2O)c2ncnc(N)c12`, the relative growth is inactive: 0.955.

As to `c1ccc2c(c1)[nH]c1cnccc12`, the relative growth was inactive: 0.832.

In the case of `COc1cc(C2c3cc4c(cc3C(O)C3COC(=O)C23)OCO4)cc(OC)c1OC` (stereo unspecified), the relative growth was inactive: 1.05.

Consider `CN1C(=O)C(O)N=C(c2ccccc2)c2cc(Cl)ccc21` (stereo unspecified), for which the relative growth is inactive: 0.849.

Turning to `COc1c2c(cc3c1OCO3)CC[N+](C)=C2.[Cl-]`, the relative growth is inactive: 1.01.

In the case of `CCCCCCCCC(=O)NCc1ccc(O)c(OC)c1`, the relative growth was inactive: 0.968.

In the case of `COc1cc2occc2c2oc(=O)ccc12`, the relative growth was inactive: 0.886.

As to `COP(=S)(OC)Oc1cc(Cl)c(Cl)cc1Cl`, the relative growth was active: 0.0496.

As for `CN1CCN(Cc2ccc[nH]2)CC1`, the relative growth was inactive: 1.01.

In the case of `CS(=O)(=O)C1C[C@H]2CC[C@@H](C1)N2` (stereo partly specified), the relative growth is inactive: 0.999.

On to `Nc1ccc([As](=O)(O)O)cc1`, for which the relative growth was inactive: 0.955.

For the molecule `NC(N)=NOCC[C@H](N)C(=O)O`, the relative growth was inactive: 0.996.

For the molecule `C[C@H](CO)N1C[C@H](C)[C@@H](CN(C)C(=O)Oc2cccc3ccccc23)OCc2cn(nn2)CCCC1=O`, the relative growth is inactive: 0.981.
